# Reference: the supplement of paper PMC8728848
# This is one part of the list.
# B1: Gal 8 (Homo sapiens), O00214_1 (protein)
# chain: MMLSLNNLQNIIYNPVIPFVGTIPDQLDPGTLIVIRGHVPSDADRFQVDLQNGSSMKPRADVAFHFNPRFKRAGCIVCNTLINEKWGREEITYDTPFKREKSFEIVIMVLKDKFQVAVNGKHTLLYGHRIGPEKIDTLGIYGKVNIHSIGFSFSSDLQSTQASSLELTEISRENVPKSGTPQLRLPFAARLNTPMGPGRTVVVKGEVNANAKSFNVDLLAGKSKDIALHLNPRLNIKAFVRNSFLQESWGEEERNITSFPFSPGMYFEMIIYCDVREFKVAVNGVHSLEYKHRFKELSSIDTLEINGDIHLLEVRSW
# Assays:
# Experiment in all cases: glycan array binding signal (z-score within array); higher = stronger binding
# Conditions in all cases: glycan notation: IUPAC condensed, linker removed
# Fuc(a1-2)Gal6S(b1-4)Glc = target: Fuc(a1-2)Gal6S(b1-4)Glc
# How it was run: (§1)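 Glycan array data came from 3228 arrays in the Consortium for Functional Glycomics database, and only arrays with an available protein sequence were kept. Glycan names were put into IUPAC-condensed notation, and columns mapping to the same glycan were averaged. The binding signal is a within-array Z-score, averaged across arrays of one protein sequence run at different concentrations or buffers and across linkers. A negative Z-score can be read as non-binding.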
# [1] = target: Fuc(a1-2)Gal6S(b1-4)Glc6S
# How it was run: as §1
# [2] = target: Fuc(a1-2)Gal6S(b1-4)GlcNAc
# How it was run: as §1
# Fuc(a1-2)[Gal(a1-3)]Gal = target: Fuc(a1-2)[Gal(a1-3)]Gal
# How it was run: as §1
# [3] = target: Fuc(a1-2)[Gal(a1-3)]Gal(b1-3)GalNAc
# How it was run: as §1
# [4] = target: Fuc(a1-2)[Gal(a1-3)]Gal(b1-3)GlcNAc
# How it was run: as §1
# [5] = target: Fuc(a1-2)[Gal(a1-3)]Gal(b1-3)GlcNAc(b1-2)Man(a1-3)[Fuc(a1-2)[Gal(a1-3)]Gal(b1-3)GlcNAc(b1-2)Man(a1-6)]Man(b1-4)GlcNAc(b1-4)GlcNAc
# How it was run: as §1
# [6] = target: Fuc(a1-2)[Gal(a1-3)]Gal(b1-3)GlcNAc(b1-2)Man(a1-3)[Fuc(a1-2)[Gal(a1-3)]Gal(b1-3)GlcNAc(b1-2)Man(a1-6)]Man(b1-4)GlcNAc(b1-4)[Fuc(a1-6)]GlcNAc
# How it was run: as §1
# [7] = target: Fuc(a1-2)[Gal(a1-3)]Gal(b1-3)GlcNAc(b1-3)GalNAc
# How it was run: as §1
# [8] = target: Fuc(a1-2)[Gal(a1-3)]Gal(b1-4)Glc
# How it was run: as §1
# [9] = target: Fuc(a1-2)[Gal(a1-3)]Gal(b1-4)GlcNAc
# How it was run: as §1
# [10] = target: Fuc(a1-2)[Gal(a1-3)]Gal(b1-4)GlcNAc(b1-2)Man(a1-3)[Fuc(a1-2)[Gal(a1-3)]Gal(b1-4)GlcNAc(b1-2)Man(a1-6)]Man(b1-4)GlcNAc(b1-4)GlcNAc
# How it was run: as §1
# [11] = target: Fuc(a1-2)[Gal(a1-3)]Gal(b1-4)GlcNAc(b1-2)Man(a1-3)[Fuc(a1-2)[Gal(a1-3)]Gal(b1-4)GlcNAc(b1-2)Man(a1-6)]Man(b1-4)GlcNAc(b1-4)[Fuc(a1-6)]GlcNAc
# How it was run: as §1
# [12] = target: Fuc(a1-2)[Gal(a1-3)]Gal(b1-4)GlcNAc(b1-3)GalNAc
# How it was run: as §1
# [13] = target: Fuc(a1-2)[Gal(a1-3)]Gal(b1-4)GlcNAc(b1-6)GalNAc
# How it was run: as §1
# [14] = target: Fuc(a1-2)[Gal(a1-3)]Gal(b1-4)[Fuc(a1-3)]Glc
# How it was run: as §1
# [15] = target: Fuc(a1-2)[Gal(a1-3)]Gal(b1-4)[Fuc(a1-3)]GlcNAc
# How it was run: as §1
# [16] = target: Fuc(a1-2)[Gal(a1-3)]Gal(b1-4)[Fuc(a1-3)]GlcNAc(b1-3)GalNAc
# How it was run: as §1
# [17] = target: Fuc(a1-2)[Gal(a1-4)]Gal(b1-4)GlcNAc
# How it was run: as §1
# [18] = target: Fuc(a1-2)[GalNAc(a1-3)]Gal
# How it was run: as §1
# [19] = target: Fuc(a1-2)[GalNAc(a1-3)]Gal(b1-3)GalNAc(a1-3)[Fuc(a1-2)]Gal(b1-4)GlcNAc
# How it was run: as §1
# [20] = target: Fuc(a1-2)[GalNAc(a1-3)]Gal(b1-3)GlcNAc
# How it was run: as §1
# [21] = target: Fuc(a1-2)[GalNAc(a1-3)]Gal(b1-3)GlcNAc(b1-2)Man(a1-3)[Fuc(a1-2)[GalNAc(a1-3)]Gal(b1-3)GlcNAc(b1-2)Man(a1-6)]Man(b1-4)GlcNAc(b1-4)GlcNAc
# How it was run: as §1
# [22] = target: Fuc(a1-2)[GalNAc(a1-3)]Gal(b1-3)GlcNAc(b1-2)Man(a1-3)[Fuc(a1-2)[GalNAc(a1-3)]Gal(b1-3)GlcNAc(b1-2)Man(a1-6)]Man(b1-4)GlcNAc(b1-4)[Fuc(a1-6)]GlcNAc
# How it was run: as §1
# [23] = target: Fuc(a1-2)[GalNAc(a1-3)]Gal(b1-3)GlcNAc(b1-3)GalNAc
# How it was run: as §1
# [24] = target: Fuc(a1-2)[GalNAc(a1-3)]Gal(b1-3)GlcNAc(b1-6)GalNAc
# How it was run: as §1
# [25] = target: Fuc(a1-2)[GalNAc(a1-3)]Gal(b1-4)Glc
# How it was run: as §1
# [26] = target: Fuc(a1-2)[GalNAc(a1-3)]Gal(b1-4)GlcNAc
# How it was run: as §1
# [27] = target: Fuc(a1-2)[GalNAc(a1-3)]Gal(b1-4)GlcNAc(b1-2)Man(a1-3)[Fuc(a1-2)[GalNAc(a1-3)]Gal(b1-4)GlcNAc(b1-2)Man(a1-6)]Man(b1-4)GlcNAc(b1-4)GlcNAc
# How it was run: as §1
# [28] = target: Fuc(a1-2)[GalNAc(a1-3)]Gal(b1-4)GlcNAc(b1-2)Man(a1-3)[Fuc(a1-2)[GalNAc(a1-3)]Gal(b1-4)GlcNAc(b1-2)Man(a1-6)]Man(b1-4)GlcNAc(b1-4)[Fuc(a1-6)]GlcNAc
# How it was run: as §1
# [29] = target: Fuc(a1-2)[GalNAc(a1-3)]Gal(b1-4)GlcNAc(b1-3)Gal(b1-4)GlcNAc
# How it was run: as §1
# [30] = target: Fuc(a1-2)[GalNAc(a1-3)]Gal(b1-4)GlcNAc(b1-3)Gal(b1-4)GlcNAc(b1-3)Gal(b1-4)GlcNAc
# How it was run: as §1
# [31] = target: Fuc(a1-2)[GalNAc(a1-3)]Gal(b1-4)GlcNAc(b1-3)GalNAc
# How it was run: as §1
# [32] = target: Fuc(a1-2)[GalNAc(a1-3)]Gal(b1-4)[Fuc(a1-3)]GlcNAc
# How it was run: as §1
# [33] = target: Fuc(a1-2)[GalNAc(a1-3)]Gal(b1-4)[Fuc(a1-3)]GlcNAc(b1-3)GalNAc
# How it was run: as §1
# [34] = target: Fuc(a1-2)[GalNAc(a1-4)]Gal(b1-4)GlcNAc
# How it was run: as §1
# [35] = target: Fuc(a1-2)[GalNAc(b1-3)]Gal
# How it was run: as §1
# Fuc(a1-3)GlcNAc = target: Fuc(a1-3)GlcNAc
# How it was run: as §1
# [36] = target: Fuc(a1-3)[Gal(b1-4)]Glc6S
# How it was run: as §1
# [37] = target: Fuc(a1-3)[Gal(b1-4)]GlcNAc
# How it was run: as §1
# [38] = target: Fuc(a1-3)[Gal(b1-4)]GlcNAc(b1-2)Man
# How it was run: as §1
# [39] = target: Fuc(a1-3)[Gal(b1-4)]GlcNAc(b1-2)Man(a1-3)[Fuc(a1-3)[Gal(b1-4)]GlcNAc(b1-2)Man(a1-6)]Man(b1-4)GlcNAc(b1-4)GlcNAc
# How it was run: as §1
# [40] = target: Fuc(a1-3)[Gal(b1-4)]GlcNAc(b1-2)Man(a1-3)[Fuc(a1-3)[Gal(b1-4)]GlcNAc(b1-2)Man(a1-6)]Man(b1-4)GlcNAc(b1-4)[Fuc(a1-6)]GlcNAc
# How it was run: as §1
# [41] = target: Fuc(a1-3)[Gal(b1-4)]GlcNAc(b1-2)Man(a1-6)[Gal(b1-4)GlcNAc(b1-2)Man(a1-3)]Man(b1-4)GlcNAc(b1-4)GlcNAc
# How it was run: as §1
# [42] = target: Fuc(a1-3)[Gal(b1-4)]GlcNAc(b1-3)Gal(b1-3)[Fuc(a1-4)]GlcNAc
# How it was run: as §1
binder,measurement,setting,value
B1,glycan array binding signal (z-score),Fuc(a1-2)Gal6S(b1-4)Glc,-0.194
same,glycan array binding signal (z-score),[1],-0.241
same,glycan array binding signal (z-score),[2],-0.203
same,glycan array binding signal (z-score),Fuc(a1-2)[Gal(a1-3)]Gal,-0.239
same,glycan array binding signal (z-score),[3],0.362
same,glycan array binding signal (z-score),[4],1.58
same,glycan array binding signal (z-score),[5],0.625
same,glycan array binding signal (z-score),[6],0.888
same,glycan array binding signal (z-score),[7],0.542
same,glycan array binding signal (z-score),[8],3.1
same,glycan array binding signal (z-score),[9],1.45
same,glycan array binding signal (z-score),[10],2.33
same,glycan array binding signal (z-score),[11],1.7
same,glycan array binding signal (z-score),[12],1.34
same,glycan array binding signal (z-score),[13],-0.215
same,glycan array binding signal (z-score),[14],-0.246
same,glycan array binding signal (z-score),[15],-0.143
same,glycan array binding signal (z-score),[16],-0.221
same,glycan array binding signal (z-score),[17],-0.251
same,glycan array binding signal (z-score),[18],-0.207
same,glycan array binding signal (z-score),[19],1.73
same,glycan array binding signal (z-score),[20],2.06
same,glycan array binding signal (z-score),[21],2.08
same,glycan array binding signal (z-score),[22],1.73
same,glycan array binding signal (z-score),[23],0.806
same,glycan array binding signal (z-score),[24],0.449
same,glycan array binding signal (z-score),[25],1.89
same,glycan array binding signal (z-score),[26],1.73
same,glycan array binding signal (z-score),[27],2.14
same,glycan array binding signal (z-score),[28],1.49
same,glycan array binding signal (z-score),[29],2.58
same,glycan array binding signal (z-score),[30],2.31
same,glycan array binding signal (z-score),[31],0.842
same,glycan array binding signal (z-score),[32],0.021
same,glycan array binding signal (z-score),[33],0.009
same,glycan array binding signal (z-score),[34],-0.125
same,glycan array binding signal (z-score),[35],-0.208
same,glycan array binding signal (z-score),Fuc(a1-3)GlcNAc,-0.204
same,glycan array binding signal (z-score),[36],-0.163
same,glycan array binding signal (z-score),[37],-0.196
same,glycan array binding signal (z-score),[38],-0.198
same,glycan array binding signal (z-score),[39],-0.192
same,glycan array binding signal (z-score),[40],-0.182
same,glycan array binding signal (z-score),[41],-0.273
same,glycan array binding signal (z-score),[42],-0.074
